Reference: the supplement of paper PMC11417369
± gives the standard deviation of the averaged measurements. This is one part of the list.

test system: PfAP2-EXP AP2 domain (GST-tagged); assay: gcPBM binding intensity (ln(normalized median fluorescence intensity)); higher = stronger DNA binding
Method in brief: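 Alexa488 anti-GST antibody, scanned at 488 nm, detected GST-tagged P. falciparum DNA-binding domains that had been expressed in E. coli and incubated for 1 h on an Agilent 4 × 180k array. The array carried primer-extended double-stranded 36-bp intergenic genomic probes and negative controls. Binding intensity is the highest Masliner-normalised natural-log median intensity across replicate spots of either orientation of each probe.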

Row | Sequence | gcPBM binding intensity (ln)
1 | AAATGTATATATGTATGTACATATATATATATATAT [XGTACX_site5778] | 10 ± 0.35
2 | ATATATATATATATATGTACTCATATTTTATTATTT [XGTACX_site898] | 10.1 ± 0.3
3 | TCGCAAATAAATTAATGTACACATATATATATATAT [XGTACX_site5145] | 10.1 ± 0.28
4 | TTTTCAATTTTTTATGAACACACAAAAAAAAAAAAA [CACACA_site8808] | 8.29 ± 0.33
5 | TATTGATAATTTTATATATACATACATAAATAAATA [CACACA_negctrl_site1687] | 8 ± 0.42
6 | ACTAATGTAAAAGTTTGTACATATATTGAGAATTAT [XGTACX_site7439] | 8.47 ± 0.33
7 | ATTTTTTTCCACTAGTGTACAAATTTTACATTGTGT [XGTACX_site5023] | 9.12 ± 0.32
8 | AAGAAAAAAACAAAAAAAAAAAAAAAAATTCTTATT [TGCATGCA_negctrl_site504] | 7.91 ± 0.49
9 | CTATAATATTAGTGCACACACAAAAATGTACTAAAC [CACACA_site6442] | 9.31 ± 0.71
10 | TAAAAAAAAACAGAAACACACATTATTCATATAGAT [CACACA_site7052] | 8.51 ± 0.47
11 | AAAAGCACCGTTCGTTGTACACTGAAACACTTTTGT [XGTACX_site199] | 8.78 ± 0.26
12 | GTTATAAATTTTTTTTTTTTTTTTTTTTTTTTTTTT [CACACA_negctrl_site848] | 9.11 ± 0.042
13 | AACAAATACGGACACACACACACACTAGAAAAAAAA [CACACA_site4442] | 8.69 ± 0.58
14 | AACAAATTGAAACAATAATTGGAAAAAAAAAAAAAA [CACACA_negctrl_site1145] | 8.21 ± 0.64
15 | ATAAAATAAAAGGAATGTACTTTTTTTATTGTAATT [XGTACX_site4372] | 8.25 ± 0.24
16 | TTTTTTTAAATATATAAGATAAATTTATAAATAAAT [XGTACX_negctrl_site282] | 7.85 ± 0.45
17 | AAAAAAAATTTCTCAAGTACACAATTTTTTTTTGTT [XGTACX_site5874] | 8.57 ± 0.27
18 | TTTTATCATCACATTTGTCAAAAAAAAAAAAAAAAA [CACACA_negctrl_site1296] | 8.04 ± 0.38
19 | TTTTATTTTTATAACAGTACATAAGTAATTGTTCAA [XGTACX_site7574] | 8.27 ± 0.3

Row | Sequence | gcPBM binding intensity (ln)
20 | TTATAATAAAAAAATTCCTAAGTCCGTATATATTAT [CACACA_negctrl_site1698] | 8.11 ± 0.32
21 | TTATGTTCATTATATGCACACATATATATAAATGTA [CACACA_site8947] | 8.41 ± 0.24
22 | GATTTTATAATTTCTACACACATATAAGAATATTCA [CACACA_site2802] | 8.55 ± 0.33
23 | ATATCAAACTAGAATGTGCGCATGCATTCAAGTTTT | 8.685 ± 0.035
24 | AAATTTGGATGACTCAATAAATTATAATATATATAT [CACACA_negctrl_site298] | 9.28 ± 0.13
25 | ATATTCTTTATATGCATACACACCTAATATAGGGAC [CACACA_site1533] | 8.84 ± 0.28
26 | AATCATTTGTTATAAGTCTAAAATTATTAGAATATT [XGTACX_negctrl_site151] | 8.15 ± 0.6
27 | TTCAATTTTTTAAAGCGTACATATAAAAGTTATATG [XGTACX_site731] | 8.45 ± 0.34
28 | ATTATTACATATAATGCATGTGCATATATTTTTATA [TGCATGCA_site701] | 8.74 ± 0.14
29 | TATATTTTATATTAGTGTACAAATTTCATTTTTCAT [XGTACX_site2204] | 8.4 ± 0.33
30 | AATATATATAAAAAAGTGCATTAGGATAACCATATA [GTGCAC_site9590] | 8.83 ± 0.24
31 | TATATATATATATTCACACATATAGTATTGTATTTA [CACACA_site5147] | 10 ± 0.45
32 | ATTTGTGACCACACAAATAAATAAATAAAAAAAAAA [TGCATGCA_negctrl_site328] | 8.36 ± 0.41
33 | AATATGAATATCTATACACACACATATATATACACA [CACACA_site8459] | 8.47 ± 0.41
34 | ATATATTTATATTTGTGTACATATTTATTATATTTA [XGTACX_site404] | 8.46 ± 0.28
35 | TAATAATAGAAACACACACACATTTTTAATAATACA [CACACA_site1216] | 8.6 ± 0.44
36 | AAGAAGAAAAACCATTGTACGAACTAACATATATAA [XGTACX_site3226] | 8.66 ± 0.35
37 | GGTATACATAATACTTGTACTAGGCAACAATAAGAT [XGTACX_site1437] | 8.87 ± 0.5
38 | TGTTAAAAGAAAAAAAGTACAAAAAATTATACATTT [XGTACX_site467] | 8.15 ± 0.32

Row | Sequence | gcPBM binding intensity (ln)
39 | ATTATAAACCATAATTAACACACAAAATAAGTTACA [CACACA_site9057] | 8.61 ± 0.37
40 | AAAAAAAAAGAAAAATGTACATACATAAATATATAT [XGTACX_site5664] | 8.57 ± 0.45
41 | ATTCTATTTTTTATAAAACCATGTCATCAACATAGG [CACACA_negctrl_site237] | 8.48 ± 0.43
42 | AAAAAAAAAAAAAAAAGTACACAAATAGATTTATAT [XGTACX_site3727] | 8.52 ± 0.18
43 | CATCCATATAAAATATGTACATATATATATATATAT [XGTACX_site5859] | 9.89 ± 0.44
44 | TCCTTTCAACCATATATAATGACATGTACTCAAAAA [GTGCAC_negctrl_site417] | 8.74 ± 0.35
45 | TATTTTAGTAAAGGTGGTACTTTTAAGTTCATGTAT [XGTACX_site1854] | 8.31 ± 0.44
46 | GATAATTTATTTTTTCGTACACAAAATATAATATAT [XGTACX_site1470] | 8.57 ± 0.24
47 | TATATATCAAGACACACACACATATATTTATTTATA [CACACA_site7733] | 8.81 ± 0.45
48 | TTTTTTAAAGATTACTCAAAAAAATAAAAAAATAAA [GTGCAC_negctrl_site222] | 8.26 ± 0.47
49 | TCGTGAGAAAATATTACACACATTTACTATAGTATC [CACACA_site3444] | 8.45 ± 0.39
50 | TTTTTTTTTTTTTTTTGATACATTAACCTACAATGG [GTGCAC_negctrl_site625] | 8.11 ± 0.45
51 | TGAGTTCAACAAAGACGTACAAAACCAAAAATATAA [XGTACX_site8931] | 8.88 ± 0.39
52 | TAATTTTTCTTTTATTAACACACATATAAATAAATA [CACACA_site8935] | 8.28 ± 0.43
53 | AAAAATAAAAAAAGCACACACATATAAATAAATATA [CACACA_site6968] | 8.69 ± 0.6
54 | ATATATTTATATATTACACACAATATTGTAGACATA [CACACA_site4669] | 8.63 ± 0.48
55 | TATATGACAAGATAAAGTACAAATTTGTATATATAT [XGTACX_site3027] | 8.97 ± 0.25
56 | CCCAATAATTAAACAACACACATATTTATAGGTAAT [CACACA_site7445] | 8.98 ± 0.83
